Results: PubChem BioAssay (NCATS)
Values joined by “and” are separate entries in the source; they are usually repeats but may differ in a detail not shown here. Identical values can stand only once. Inconclusive results, whose numbers are uncertain, are shown with a selection of clear calls. Potencies of inconclusive entries are doubtful fits and often do not repeat. Active and inactive are the calls of the source. Calls follow the shape of the dose curve; as a rule, active = well fitted curve in the direction sought with a large enough effect; inconclusive = small, poorly fitted or top-dose-only effect, or another doubt; inactive = no such curve, though single readings can be large; an effect the other way counts as inactive or inconclusive.

Key:
[1] = target: Cytochrome P450 3A7 (Homo sapiens) (UniProt P24462); assay: Cytochrome P450 family 3 subfamily A member 7 (CYP3A7) small molecule antagonists: luciferase biochemical qHTS assay (AID 1963596); also: nearly all actives have a fitted effect of over 40% in size
UniProt P24462, sequence (P24462 whole entry, looked up): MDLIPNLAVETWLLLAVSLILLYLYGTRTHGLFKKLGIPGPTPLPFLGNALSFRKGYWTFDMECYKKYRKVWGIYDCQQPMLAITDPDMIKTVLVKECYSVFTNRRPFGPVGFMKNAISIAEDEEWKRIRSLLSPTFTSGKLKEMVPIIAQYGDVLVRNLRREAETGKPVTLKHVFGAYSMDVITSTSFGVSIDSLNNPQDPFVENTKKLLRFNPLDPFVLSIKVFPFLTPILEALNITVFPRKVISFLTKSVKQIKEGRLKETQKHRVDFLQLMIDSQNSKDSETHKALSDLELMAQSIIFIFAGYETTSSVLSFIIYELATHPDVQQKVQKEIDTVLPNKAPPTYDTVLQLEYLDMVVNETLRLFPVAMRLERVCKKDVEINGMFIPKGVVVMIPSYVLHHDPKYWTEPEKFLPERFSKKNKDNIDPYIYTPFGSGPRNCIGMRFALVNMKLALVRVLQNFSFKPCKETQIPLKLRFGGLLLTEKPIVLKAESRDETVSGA
Summary of the method: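 In this luminescent screen, enzyme and proluciferin substrate meet test compound for 10 min before NADPH regeneration solution drives a 1 h room-temperature reaction; detection reagent halts turnover and luminescence is read 20 min later.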

[2] = Viability qHTS for spleen associated tyrosine kinase inhibitor (SYKi) naive MV4-11 cells (AID 1963823); conditions: MV4-11 AML viability, CellTiter-Glo luminescence, 72 h; series mostly up to 45 µM; also: nearly all actives have a fitted effect of over 40% in size
Summary of the method: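 Read-out: CellTiter-Glo luminescence. Exposure: 72 hr, 37 C, 5% CO2, 95% humidity. Cells: MV4-11 without SYK inhibitor history, 500/well, qHTS format.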

[3] = Viability qHTS for spleen associated tyrosine kinase inhibitor (SYKi) drug resistant MV4-11 cells (AID 1963824); also: nearly all actives have a fitted effect of over 35% in size
Summary of the method: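 SYK-inhibitor-resistant MV4-11 AML cells were seeded at 500 per well onto compound and cultured 72 hours (37 °C, 5% CO2). CellTiter-Glo was then added, and after 10 min at room temperature, luminescence gave viability.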
Potency is read from the fitted curve at half-maximal effect; tags tell the direction and shape of the fitted curve.

| SMILES | Potency [1] | Potency [2] | Potency [3] |
| --- | --- | --- | --- |
| CC(C)(C)CCN1C[C@@H]2C(CNC(=O)c3cc(Cl)cc(Cl)c3)[C@@H]2C1 (some centres undefined) | inactive | inconclusive: 23.1 µM [cytotoxic, partial curve, poor fit] | inconclusive: 16.4 µM [cytotoxic, partial curve] |
| O=C1c2ccccc2C(=O)C1c1ccc(Br)cc1 | inconclusive: 38.9 µM [inhibitor, single point] | inactive | inactive |
| CC(C)(N)c1ncc(-c2ccc(OC(F)(F)F)cc2)[nH]1 | inconclusive: 35.5 µM [inhibitor, single point] | inconclusive: 20.6 µM [cytotoxic, partial curve] | inconclusive: 23.1 µM [cytotoxic, partial curve] |
| CN(C)CCN1CCN(c2cccc(Cl)c2)C1=O | inactive | inactive | inconclusive: 0.0119 µM [rising, full curve, poor fit] |
| C/C(=C1\CCOC(=O)S1)N(C=O)Cc1cnc(C)nc1N | inconclusive: 30.9 µM [inhibitor, single point] | inconclusive: 0.668 µM [cytotoxic, full curve, poor fit] | inconclusive: 33.5 µM [cytotoxic, single point] |
| CN1CCC(=C2c3ccccc3CCc3cccnc32)CC1 | inconclusive: 17.4 µM [inhibitor, partial curve, poor fit] | inconclusive: 0.0422 µM [rising, full curve, poor fit] | inconclusive: 0.106 µM [rising, partial curve, poor fit] |
| C[C@]12C=CC(=O)C=C1[C@@H](F)C[C@@H]1[C@@H]2[C@@H](O)C[C@@]2(C)[C@H]1CC[C@]2(O)C(=O)CO | inconclusive: 1.74 µM [inhibitor, partial curve, poor fit] | inactive | inactive |
| O=C(Nc1ccc(Cl)cc1)Nc1ccc(Cl)c(Cl)c1 | inactive | active: 9.44 µM | – |
| CN(C)[C@@H]1CCc2[nH]c3ccc(NC(=O)c4ccc(F)cc4)cc3c2C1 | inconclusive: 35.5 µM [inhibitor, partial curve, poor fit] | inconclusive: 29.1 µM [cytotoxic, single point] | inconclusive: 29.1 µM [cytotoxic, single point] |
| COc1cc(NC(=O)c2ccccn2)ccc1Cl | inactive | inconclusive: 16.4 µM [cytotoxic, single point] | inconclusive: 16.4 µM [cytotoxic, single point] |
| CC(NN)c1ccccc1 (centres undefined) | inconclusive: 10.7 µM [inhibitor, single point] | inconclusive: 0.0012 µM [cytotoxic] | inactive |
| CC1(C)[C@H]2C[C@H](C/C=C\CCCC(=O)O)[C@@H](NC(=O)c3csc4ccc(O)cc34)[C@@H]1C2 | inactive | inconclusive: 10.3 µM [cytotoxic, partial curve, poor fit] | inconclusive: 14.6 µM [cytotoxic, partial curve, poor fit] |
| Cc1nc2ccccc2c(-c2ccc3c4c(ccnc24)CCO3)c1[C@H](OC(C)(C)C)C(=O)O | inconclusive: 23.9 µM [inhibitor, single point] | inactive | inconclusive: 18.4 µM [cytotoxic, single point] |
| Cc1ccc(NC(=O)Nc2cc(C(F)(F)F)ccc2F)cc1Nc1ccc2c(c1)NC(=O)/C2=C\c1ccc[nH]1 | inactive | inconclusive: 4.11 µM [cytotoxic, full curve] and inconclusive: 8.33 µM [cytotoxic, full curve] | inconclusive: 5.17 µM [cytotoxic, full curve] and inconclusive: 7.42 µM [cytotoxic, full curve] |
| Nc1nc2c(c(N3CC[C@@H](N)C3)n1)CCCc1ccccc1-2 | inconclusive: 1.78 µM [inhibitor, full curve] | inconclusive: 29.1 µM [cytotoxic, single point] | inconclusive: 20.6 µM [cytotoxic, single point] |
| O=[N+]([O-])c1cc(Cl)ccc1S(=O)(=O)N1CCN(Cc2ccccc2)CC1 | inconclusive: 2.51 µM [inhibitor, full curve, poor fit] | inconclusive: 20.6 µM [cytotoxic, single point] | inconclusive: 20.6 µM [cytotoxic, single point] |
| CC(C)(C)c1ccc(C(=O)CCCCl)cc1 | inactive | inconclusive: 33.5 µM [cytotoxic, single point] | inconclusive: 29.9 µM [cytotoxic, single point] |
| Cc1cc(N2CCN([C@@H]3CN[C@H](C(=O)N4CCSC4)C3)CC2)n(-c2ccccc2)n1 | inconclusive: 19 µM [inhibitor, single point] | inconclusive: 32.6 µM [cytotoxic, single point] | inconclusive: 20.6 µM [cytotoxic, partial curve] |
| Cc1cnc(NC(=O)Nc2cc(Br)c(C)cc2OCC2CNCCO2)cn1 (centres undefined) | inconclusive: 0.849 µM [inhibitor, full curve, poor fit] | active: 0.731 µM | active: 0.82 µM |
| CC(=O)CC(c1ccccc1)c1c(O)c2ccccc2oc1=O (centres undefined) | inconclusive: 5.49 µM [inhibitor, partial curve, poor fit] | inconclusive: 18.8 µM [cytotoxic, single point] | inactive |
| Cc1cc(C)nc(NS(=O)(=O)c2ccc(NC(=S)NC(=O)COc3ccc(Br)cc3Cl)cc2)n1 | inconclusive: 12 µM [inhibitor, partial curve] | inactive | – |
| CCc1ccccc1OC[C@@H](O)CN[C@H]1CCCc2ccccc21 | inactive | inconclusive: 10.3 µM [cytotoxic, partial curve] | inconclusive: 9.2 µM [cytotoxic, partial curve] |
| COc1cc(C(=O)NC(=S)Nc2cccc(NC(=O)c3ccccc3)c2)cc(OC)c1OC | inactive | inconclusive: 23.1 µM [cytotoxic, single point] | inconclusive: 13 µM [cytotoxic, partial curve] |
| Nc1nc(O)c(C2=C3C(=Nc4ccccc43)C(=O)NCC2)[nH]1 | inactive | active: 0.461 µM | – |
